According to patent US10647743B2, “Method of making biologically active alpha-beta peptides” (priority 2008, dated 2020):
Values joined by “and” are separate entries in the source; they are usually repeats but may differ in a detail not shown here. Equal entries are not always repeated. Where two headings read alike, the source gives them in different places. Part of at least one peptide drawing is inferred or uncertain, most often the ends. At least one structure is not confirmed: it was looked up by name or label, or the drawing left a doubt. *1 amine or outer side, *2 acyl side, *3 side chain or, on linkers, in order; H or OH if unused. Where a SMILES comes first, the peptide text is derived from it. [ ]: non-standard residue; d: D form. ξ: configuration not given here. ξ(4-Aminopyrrolidine-3-CO) = O=C(C1CNCC1N[*:1])[*:2]; X2 = O=C([C@H]1CCC[C@@H]1N[*:1])[*:2]; X3 = O=C([C@H]1CNC[C@@H]1N[*:1])[*:2]; β3hR = N=C(N)NCCC[C@H](N)CC(=O)O; β3hT = C[C@@H](O)[C@H](N)CC(=O)O; β3hE = N[C@@H](CCC(=O)O)CC(=O)O; X1 = O=C(C1CCCC1N[*:1])[*:2]

Target: gp41-5 (Human immunodeficiency virus type 1 group M subtype B, UniProt P04578, C598G/DEL582-595/DEL601-626/T627G/W596S)
Type: binding, HIV
Details: for Ki: competition FP
[1] = Table 4, read-out: gp41-5 binding affinity by FP Ki

Structure (SMILES)	Ki (read-out: Ki for gp41-5)	Ki (Table 2, read-out: gp41-5 Ki)	Ki [1]	other results
CC[C@H](C)[C@H](NC(=O)[C@H](C)NC(=O)[C@H]1CNC[C@@H]1NC(=O)[C@H](CC(=O)O)NC(=O)[C@H](Cc1c[nH]c2ccccc12)NC(=O)[C@H]1CCC[C@@H]1NC(=O)[C@H](CCC(=O)O)NC(=O)[C@H](Cc1c[nH]c2ccccc12)NC(=O)[C@@H](NC(=O)C[C@@H](NC(C)=O)[C@@H](C)O)[C@@H](C)O)C(=O)N[C@@H](C)C(=O)N[C@@H](CCC(=O)O)CC(=O)N[C@@H](Cc1ccc(O)cc1)C(=O)N[C@@H](C)C(=O)N[C@@H](C)C(=O)N[C@@H](CCCNC(=N)N)C(=O)N[C@H](C(=O)N[C@@H](CCC(=O)O)C(=O)N[C@@H](C)C(=O)N[C@@H](CC(C)C)C(=O)N[C@H](C(=O)N[C@@H](CCCNC(=N)N)C(=O)N[C@@H](C)C(=O)N[C@@H](C)C(=O)N[C@@H](CCC(N)=O)C(=O)N[C@@H](CCC(=O)O)CC(=O)N[C@@H](CCC(N)=O)C(=O)N[C@@H](CCC(N)=O)C(=O)N[C@@H](CCC(=O)O)CC(=O)N[C@@H](CCCCN)C(=O)N[C@@H](CC(N)=O)C(=O)N[C@@H](CCC(=O)O)C(=O)N[C@H]1CCC[C@@H]1C(=O)N[C@@H](C)C(=O)N[C@@H](CC(C)C)C(=O)N[C@H]1CNC[C@@H]1C(=O)N[C@@H](CCC(=O)O)C(=O)N[C@@H](CC(C)C)C(N)=O)[C@@H](C)CC)[C@@H](C)CC [compound 14, Ac-TTWEXWDZAIAEYAARIEALIRAAQEQQEKNEXALZEL-NH2] (Ac-[β3hT]TWE[X2]WD[X3]AIA[β3hE]YAARIEALIRAAQ[β3hE]QQ[β3hE]KNE[X2]AL[X3]EL-NH2)	1.4 nM	–	–	–
CC[C@H](C)[C@H](NC(=O)[C@H](C)NC(=O)[C@H](CCCNC(=N)N)NC(=O)[C@H](CC(=O)O)NC(=O)[C@H](Cc1c[nH]c2ccccc12)NC(=O)[C@H](C)NC(=O)[C@H](CCC(=O)O)NC(=O)[C@H](Cc1c[nH]c2ccccc12)NC(=O)[C@@H](NC(=O)[C@@H](NC(C)=O)[C@@H](C)O)[C@@H](C)O)C(=O)N[C@@H](C)C(=O)N[C@@H](CCC(=O)O)C(=O)N[C@@H](Cc1ccc(O)cc1)C(=O)N[C@@H](C)C(=O)NC1CCCC1C(=O)N[C@@H](CCCNC(=N)N)C(=O)N[C@H](C(=O)N[C@@H](CCC(=O)O)C(=O)NC1CCCC1C(=O)N[C@@H](CC(C)C)C(=O)N[C@H](C(=O)NC1CNCC1C(=O)N[C@@H](C)C(=O)N[C@@H](C)C(=O)N[C@@H](CCC(N)=O)C(=O)N[C@@H](CCC(=O)O)CC(=O)N[C@@H](CCC(N)=O)C(=O)N[C@@H](CCC(N)=O)C(=O)N[C@@H](CCC(=O)O)CC(=O)N[C@@H](CCCCN)C(=O)N[C@@H](CC(N)=O)C(=O)N[C@@H](CCC(=O)O)C(=O)NC1CCCC1C(=O)N[C@@H](C)C(=O)N[C@@H](CC(C)C)C(=O)NC1CNCC1C(=O)N[C@@H](CCC(=O)O)C(=O)N[C@@H](CC(C)C)C(N)=O)[C@@H](C)CC)[C@@H](C)CC (stereo partly drawn) [compound 8, Ac-TTWEAWDRAIAEYAXRIEXLIZAAQEQQEKNEXALZEL-NH2] (Ac-TTWEAWDRAIAEYA[X1]RIE[X1]LI[ξ(4-Aminopyrrolidine-3-CO)]AAQ[β3hE]QQ[β3hE]KNE[X1]AL[ξ(4-Aminopyrrolidine-3-CO)]EL-NH2)	0.3 nM	–	–	–
CC[C@H](C)[C@H](NC(=O)[C@H](C)NC(=O)[C@H](CCCNC(=N)N)NC(=O)[C@H](CC(=O)O)NC(=O)[C@H](Cc1c[nH]c2ccccc12)NC(=O)[C@H](C)NC(=O)[C@H](CCC(=O)O)NC(=O)[C@H](Cc1c[nH]c2ccccc12)NC(=O)[C@@H](NC(=O)[C@@H](NC(C)=O)[C@@H](C)O)[C@@H](C)O)C(=O)N[C@@H](C)C(=O)N[C@@H](CCC(=O)O)CC(=O)N[C@@H](Cc1ccc(O)cc1)C(=O)N[C@@H](C)C(=O)N[C@H]1CCC[C@@H]1C(=O)N[C@@H](CCCNC(=N)N)C(=O)N[C@H](C(=O)N[C@@H](CCC(=O)O)C(=O)N[C@H]1CCC[C@@H]1C(=O)N[C@@H](CC(C)C)C(=O)N[C@H](C(=O)N[C@H]1CNC[C@@H]1C(=O)N[C@@H](C)C(=O)N[C@@H](C)C(=O)N[C@@H](CCC(N)=O)C(=O)N[C@@H](CCC(=O)O)CC(=O)N[C@@H](CCC(N)=O)C(=O)N[C@@H](CCC(N)=O)C(=O)N[C@@H](CCC(=O)O)CC(=O)N[C@@H](CCCCN)C(=O)N[C@@H](CC(N)=O)C(=O)N[C@@H](CCC(=O)O)C(=O)N[C@H]1CCC[C@@H]1C(=O)N[C@@H](C)C(=O)N[C@@H](CC(C)C)C(=O)N[C@H]1CNC[C@@H]1C(=O)N[C@@H](CCC(=O)O)C(=O)N[C@@H](CC(C)C)C(N)=O)[C@@H](C)CC)[C@@H](C)CC [compound 13, Ac-TTWEAWDRAIAEYAXRIEXLIZAAQEQQEKNEXALZEL-NH2] (Ac-TTWEAWDRAIA[β3hE]YA[X2]RIE[X2]LI[X3]AAQ[β3hE]QQ[β3hE]KNE[X2]AL[X3]EL-NH2)	0.8 nM	–	–	–
CC[C@H](C)[C@H](NC(=O)[C@H](C)NC(=O)C[C@H](CCCNC(=N)N)NC(=O)[C@H](CC(=O)O)NC(=O)[C@H](Cc1c[nH]c2ccccc12)NC(=O)[C@H]1CCC[C@@H]1NC(=O)[C@H](CCC(=O)O)NC(=O)[C@H](Cc1c[nH]c2ccccc12)NC(=O)[C@@H](NC(=O)C[C@@H](NC(C)=O)[C@@H](C)O)[C@@H](C)O)C(=O)N[C@@H](C)C(=O)N[C@@H](CCC(=O)O)CC(=O)N[C@@H](Cc1ccc(O)cc1)C(=O)N[C@@H](C)C(=O)N[C@H]1CCC[C@@H]1C(=O)N[C@@H](CCCNC(=N)N)C(=O)N[C@H](C(=O)N[C@@H](CCC(=O)O)C(=O)N[C@H]1CCC[C@@H]1C(=O)N[C@@H](CC(C)C)C(=O)N[C@H](C(=O)N[C@@H](CCCNC(=N)N)CC(=O)N[C@@H](C)C(=O)N[C@@H](C)C(=O)N[C@@H](CCC(N)=O)C(=O)N[C@@H](CCC(=O)O)CC(=O)N[C@@H](CCC(N)=O)C(=O)N[C@@H](CCC(N)=O)C(=O)N[C@@H](CCC(=O)O)CC(=O)N[C@@H](CCCCN)C(=O)N[C@@H](CC(N)=O)C(=O)N[C@@H](CCC(=O)O)C(=O)N[C@H]1CCC[C@@H]1C(=O)N[C@@H](C)C(=O)N[C@@H](CC(C)C)C(=O)N[C@@H](CCCNC(=N)N)CC(=O)N[C@@H](CCC(=O)O)C(=O)N[C@@H](CC(C)C)C(N)=O)[C@@H](C)CC)[C@@H](C)CC [compound 9] (Ac-[β3hT]TWE[X2]WD[β3hR]AIA[β3hE]YA[X2]RIE[X2]LI[β3hR]AAQ[β3hE]QQ[β3hE]KNE[X2]AL[β3hR]EL-NH2)	–	83 nM	83 nM	fold higher affinity for gp41-5 relative to 4 (relative to 4): 50 fold and > 45 fold
CC[C@H](C)[C@H](NC(=O)[C@H](C)NC(=O)[C@H]1CNC[C@@H]1NC(=O)[C@H](CC(=O)O)NC(=O)[C@H](Cc1c[nH]c2ccccc12)NC(=O)[C@H](C)NC(=O)[C@H](CCC(=O)O)NC(=O)[C@H](Cc1c[nH]c2ccccc12)NC(=O)[C@@H](NC(=O)[C@@H](NC(C)=O)[C@@H](C)O)[C@@H](C)O)C(=O)N[C@@H](C)C(=O)N[C@@H](CCC(=O)O)CC(=O)N[C@@H](Cc1ccc(O)cc1)C(=O)N[C@@H](C)C(=O)N[C@H]1CCC[C@@H]1C(=O)N[C@@H](CCCNC(=N)N)C(=O)N[C@H](C(=O)N[C@@H](CCC(=O)O)C(=O)N[C@H]1CCC[C@@H]1C(=O)N[C@@H](CC(C)C)C(=O)N[C@H](C(=O)N[C@H]1CNC[C@@H]1C(=O)N[C@@H](C)C(=O)N[C@@H](C)C(=O)N[C@@H](CCC(N)=O)C(=O)N[C@@H](CCC(=O)O)CC(=O)N[C@@H](CCC(N)=O)C(=O)N[C@@H](CCC(N)=O)C(=O)N[C@@H](CCC(=O)O)CC(=O)N[C@@H](CCCCN)C(=O)N[C@@H](CC(N)=O)C(=O)N[C@@H](CCC(=O)O)C(=O)N[C@H]1CCC[C@@H]1C(=O)N[C@@H](C)C(=O)N[C@@H](CC(C)C)C(=O)N[C@H]1CNC[C@@H]1C(=O)N[C@@H](CCC(=O)O)C(=O)N[C@@H](CC(C)C)C(N)=O)[C@@H](C)CC)[C@@H](C)CC [compound 12, Ac-TTWEAWDZAIAEYAXRIEXLIZAAQEQQEKNEXALZEL-NH2] (Ac-TTWEAWD[X3]AIA[β3hE]YA[X2]RIE[X2]LI[X3]AAQ[β3hE]QQ[β3hE]KNE[X2]AL[X3]EL-NH2)	8 nM	–	–	–
CC[C@H](C)[C@H](NC(=O)[C@H](C)NC(=O)[C@H](CCCNC(=N)N)NC(=O)[C@H](CC(=O)O)NC(=O)[C@H](Cc1c[nH]c2ccccc12)NC(=O)[C@H](C)NC(=O)[C@H](CCC(=O)O)NC(=O)[C@H](Cc1c[nH]c2ccccc12)NC(=O)[C@@H](NC(=O)[C@@H](NC(C)=O)[C@@H](C)O)[C@@H](C)O)C(=O)N[C@@H](C)C(=O)N[C@@H](CCC(=O)O)C(=O)N[C@@H](Cc1ccc(O)cc1)C(=O)N[C@@H](C)C(=O)NC1CCCC1C(=O)N[C@@H](CCCNC(=N)N)C(=O)N[C@H](C(=O)N[C@@H](CCC(=O)O)C(=O)NC1CCCC1C(=O)N[C@@H](CC(C)C)C(=O)N[C@H](C(=O)N[C@@H](CCCNC(=N)N)CC(=O)N[C@@H](C)C(=O)N[C@@H](C)C(=O)N[C@@H](CCC(N)=O)C(=O)N[C@@H](CCC(=O)O)CC(=O)N[C@@H](CCC(N)=O)C(=O)N[C@@H](CCC(N)=O)C(=O)N[C@@H](CCC(=O)O)CC(=O)N[C@@H](CCCCN)C(=O)N[C@@H](CC(N)=O)C(=O)N[C@@H](CCC(=O)O)C(=O)NC1CCCC1C(=O)N[C@@H](C)C(=O)N[C@@H](CC(C)C)C(=O)N[C@@H](CCCNC(=N)N)CC(=O)N[C@@H](CCC(=O)O)C(=O)N[C@@H](CC(C)C)C(N)=O)[C@@H](C)CC)[C@@H](C)CC (stereo partly drawn) [compound 7] (Ac-TTWEAWDRAIAEYA[X1]RIE[X1]LI[β3hR]AAQ[β3hE]QQ[β3hE]KNE[X1]AL[β3hR]EL-NH2; C-terminus assumed)	–	0.4 nM	0.4 nM	fold improvement in binding to gp41-5 relative to 6 (relative to 6): 40 fold and > 30 fold
